{"source": "the RNAGym collection of RNA variant scans (doi:10.7554/elife.90254)", "parents": {"B1": {"name": "LINE1-mini (parent)", "chain": "GGCAGAGCUCAACACAGCGUGGCAAAGUGGCUGUGGCUAGACUGCC"}}, "note": "Read counts are not given, so values of variants with three or more changes are uncertain."}
{"variants_of": "B1", "test": "self-cleavage, relative activity (ratio to wild type); higher = more cleavage; in vitro, sequencing; the parent is a self-cleaving ribozyme"}
{"variant": "GGCAGAGCUCAACAAAGCUUGGCAAAGUGGGUGUGGCUAGACUGCC", "note": "[C15A G19U C31G]", "self-cleavage": 0.01}
{"variant": "GGCAUAGCUCAACACGGCGUGUCAAAGUGGCUGUGGCUAGACUGCC", "note": "[G5U A16G G22U]", "self-cleavage": 0.03}
{"variant": "GGACGAGCUCAACACAGCGUGGCAAAGUGGCUGUGGCUCGACUGCC", "note": "[C3A A4C A39C]", "self-cleavage": 0.04}
{"variant": "GGCAUAGCUCAACACAGCGUGGCAAAGUGGCUGUGGGAAGACUGCC", "note": "[G5U C37G U38A]", "self-cleavage": 0.03}
{"variant": "GGUAAAGGUCAACACAGCCUGGCAAAGUGGCUGUGGCUAUACUGCC", "note": "[C3U G5A C8G G19C G40U]", "self-cleavage": 0.08}
{"variant": "GGCAGAGCUCAACACCGCGUGGCAAAGGGGCUGUGGGUAGACUGCC", "note": "[A16C U28G C37G]", "self-cleavage": 0}
{"variant": "GGCAGAGUUCAGCACAGCGUGGCAAAGUGGCUGUGGCUAUACUGCC", "note": "[C8U A12G G40U]", "self-cleavage": 0.32}
{"variant": "GGCAGAGCUCAACACAGCGUGUCAAAGUGGCUGUGACUAGACUGCG", "note": "[G22U G36A C46G]", "self-cleavage": 0.34}
{"variant": "GGCAGAGCUCAACACGGCGUGGCAAAGUGGCUUUGGCUAGACUGGC", "note": "[A16G G33U C45G]", "self-cleavage": 0.08}
{"variant": "GGAAGAUCUCAACACACCGUGGCAAAGUGGCUGAGGCUAGACUGCC", "note": "[C3A G7U G17C U34A]", "self-cleavage": 0.06}
{"variant": "GGCAUAGCUCAACAAAGCGUGGCAAAGUGGCUGUGACUUGACUGCA", "note": "[G5U C15A G36A A39U C46A]", "self-cleavage": 0.01}
{"variant": "GGCAGAGCUCAACACAGCGUCGCAAGAUGGCUGUGGCUAGACUGCC", "note": "[G21C A26G G27A]", "self-cleavage": 0.58}
{"variant": "GGCAGAUCUCUACACAGCGUGGUAAAGUGGCUGUGGCUAGACUGCC", "note": "[G7U A11U C23U]", "self-cleavage": 0.02}
{"variant": "CGCUGAGUUCAAAACAGCGUGGUAAAGUGGCUGUGGCUAGAUUGCC", "note": "[G1C A4U C8U C13A C23U C42U]", "self-cleavage": 0.01}
{"variant": "GGUAGAGGUCAACACAGCGUGGCAAAGUGGCUUUGGCUAAACUGUC", "note": "[C3U C8G G33U G40A C45U]", "self-cleavage": 0.17}
{"variant": "GGCAGAGCUCAACACAGCGUGGCAAUGUGACAGUGGCUCGACUGCC", "note": "[A26U G30A U32A A39C]", "self-cleavage": 0.07}
{"variant": "GGCACAGAUCAACACAGCGUGGCAAAGUGGCUGUGGCUAGACUACC", "note": "[G5C C8A G44A]", "self-cleavage": 0.05}
{"variant": "GGCAGAGCUCAACUCAUCGUGGCAAAGUGGCUGUGGCUAGACUGAC", "note": "[A14U G17U C45A]", "self-cleavage": 0.01}
{"variant": "GGAAGCCCUCAACACAGCGUGGCAAAGGGGCUGUGGCUAAACUAAC", "note": "[C3A A6C G7C U28G G40A G44A C45A]", "self-cleavage": 0}
{"variant": "GGCAGAGCUCAACACAGCGUGGCAAAAUGGUUGUGGCUACACGGCC", "note": "[G27A C31U G40C U43G]", "self-cleavage": 0.48}
{"variant": "UGCAGAGCUCAACACAGCCUGGCAAAGAGGCUGUGGCGAAACUGCC", "note": "[G1U G19C U28A U38G G40A]", "self-cleavage": 0.01}
{"variant": "GGCAGACCUCAACACAGCGUGGCAAAGCGGCUGUGGCUAGACUGCA", "note": "[G7C U28C C46A]", "self-cleavage": 0.06}
{"variant": "GGCAGAGCUCAACAGAGGGUGGCAAAGUGGCUGUGGCUAGACUGCU", "note": "[C15G C18G C46U]", "self-cleavage": 0.02}
{"variant": "GGCAGAGCUUAACACAUCGUGGCAAAGUGGCUGUGGCUAGACUGCU", "note": "[C10U G17U C46U]", "self-cleavage": 0.09}
{"variant": "GGCAGAGCUCACCACAGCGUUGCAAAGUGGUUGUGGCUGGACCGCC", "note": "[A12C G21U C31U A39G U43C]", "self-cleavage": 0.01}
{"variant": "GGCAGAACUCAAGACAACGUGGCAAAGUGGCUGUGGCCAGACUGCC", "note": "[G7A C13G G17A U38C]", "self-cleavage": 0.1}
{"variant": "GCUAGAGCUCAACACAGCGUGGCACAGUGGCUGUGGCUAGGCGGCC", "note": "[G2C C3U A25C A41G U43G]", "self-cleavage": 0.04}
{"variant": "GGCAGACUUCAACACAGCGUGGCGAAGUGGCUGUGGAUAGAGUGCC", "note": "[G7C C8U A24G C37A C42G]", "self-cleavage": 0.03}
{"variant": "GGCAGUGCUCAACACAGCGUGGCAUUGUGGCUGUGGCUAGACUGCC", "note": "[A6U A25U A26U]", "self-cleavage": 0.37}
{"variant": "GGCAGAGGUCAGCACAGCGUGGCUAAGUGGCUGUGGCUAGACUGCC", "note": "[C8G A12G A24U]", "self-cleavage": 0.03}
{"variant": "GGCACAGCUCAACCAAGCGUGGCAAAGUGGCUGUGGCUAGACUGCC", "note": "[G5C A14C C15A]", "self-cleavage": 0.02}
{"variant": "UGGAGAGUUUAACACAGCGUGGCUAAGUGGCUGUGGAUUGACUGCC", "note": "[G1U C3G C8U C10U A24U C37A A39U]", "self-cleavage": 0.1}
{"variant": "GGGAAAGCUCAACACAGCGUAGCAAAGUGGCUGUGCCUAGACUGCC", "note": "[C3G G5A G21A G36C]", "self-cleavage": 1.57}
{"variant": "GGCAGAGCUCAACACAGCGUGGCAAAGUUACUGUGGCUAGAUUGCC", "note": "[G29U G30A C42U]", "self-cleavage": 0.47}
{"variant": "GGCAGAGCUUAACACAGCGUGGCAAAAUCGCUGUGGCUAGACUGCC", "note": "[C10U G27A G29C]", "self-cleavage": 0.16}
{"variant": "GGCAGAGCUCGACACAUCGUGGCAAAGUGGCGGUGGCUAGACUGCU", "note": "[A11G G17U U32G C46U]", "self-cleavage": 0.01}
{"variant": "GGCAGAGCUCAACACAGCGUGGCAAAGUGGCUGUGUCUGGACGGCC", "note": "[G36U A39G U43G]", "self-cleavage": 0.01}
{"variant": "GGCAUAGCUCAACACAGCGUGGCAGAGUGGCUGUGGCUAGACUGCU", "note": "[G5U A25G C46U]", "self-cleavage": 0}
{"variant": "GGCAGAGUUCAAGACAGCGCGGAAAAGUGGCUGUGGCUAGACUGCC", "note": "[C8U C13G U20C C23A]", "self-cleavage": 0.07}
{"variant": "GGCAUAGCGCAACACAGCGUGGCAAAGCGGCUGUGGCUAGACUGCC", "note": "[G5U U9G U28C]", "self-cleavage": 0.04}
{"variant": "GGCAGAGCUCUACACACCGUGGCAAAGUGGCUAUGGAUAGACUGCC", "note": "[A11U G17C G33A C37A]", "self-cleavage": 0}
{"variant": "GGCAGAGCUCAACACUGCGUGGCAAAGUGGCUGUAGCUCGACCGCC", "note": "[A16U G35A A39C U43C]", "self-cleavage": 0}
{"variant": "GGCAGAGCUCAACACAGCGUGGCAAGGUGGCUCUGGCUAGACAGCC", "note": "[A26G G33C U43A]", "self-cleavage": 0}
{"variant": "GUCAGAGGUCAACACAGCGUGGCAAAAUACCUGUGGCUAGACUGCC", "note": "[G2U C8G G27A G29A G30C]", "self-cleavage": 0.01}
{"variant": "GGCAGAGCUCAACACAGCGUGUCAAAGUAGCUGUGGCUCGACUGCC", "note": "[G22U G29A A39C]", "self-cleavage": 0.24}
{"variant": "GGCAGAGCUCAACUCAGCAUGUCAAAGUGGCGGUGCCUAGACUGCC", "note": "[A14U G19A G22U U32G G36C]", "self-cleavage": 0.08}
{"variant": "GGCAGGGGUCAACAGAGCGUGGCAAAGUGGAUGUGGGUAGACUGCC", "note": "[A6G C8G C15G C31A C37G]", "self-cleavage": 0.17}
{"variant": "GGCAGAGCUGAACACAGCUUGGCAAAGUGGCGGUGGCUAGACUGCC", "note": "[C10G G19U U32G]", "self-cleavage": 0.02}
{"variant": "GGCAGAGCUCCAGACAGCUUGGCAAAGUGGCUGUGGCUAGACUGCC", "note": "[A11C C13G G19U]", "self-cleavage": 0.02}
{"variant": "GGGAGAUCUCAACACAGCGUGGCAAAGUGUCUGUGGCUAGACUGCC", "note": "[C3G G7U G30U]", "self-cleavage": 0.25}
{"variant": "GGCUGACCUCAACACAGCUUGGCAAAGUGGCUGUGGCUAGACUGCC", "note": "[A4U G7C G19U]", "self-cleavage": 0.07}
{"variant": "GGUAGAGCUCAACACAGCGUAGCAAAGUUGCUGUAGCUAGACUGCC", "note": "[C3U G21A G29U G35A]", "self-cleavage": 1.36}
{"variant": "GGCAGAGCUCAACGCCGCGUGGCAAUGUGGAUGUGGCUAGACUGCC", "note": "[A14G A16C A26U C31A]", "self-cleavage": 0.03}
{"variant": "GGCAGAGCUCAACACAGCUUGGCAAAGUGUCUGUGGCUAGACUGUC", "note": "[G19U G30U C45U]", "self-cleavage": 0.48}
{"variant": "GGCACAGCUCAACACAGCGUGGCAAAGUGGCUGUAGCUAGAAUGCC", "note": "[G5C G35A C42A]", "self-cleavage": 0.01}
{"variant": "GGCAGAGCUUAACACAGUGUGGCAAAGUGGCAGUGGCUAGACUGCC", "note": "[C10U C18U U32A]", "self-cleavage": 0.04}
